In the supplement of paper PMC7826260:
This is one part of the list. Viral Rep nickase domains cut single-stranded DNA in vitro (3 µM enzyme, 1 h, 37 °C); shown is the middle of each 90-letter strand. Numbers give uncut DNA relative to the enzyme-free pool, as log2; strong cutting gives strongly negative numbers. There is no active / inactive call. Because reads are shares of a total, they shift together; values above 0 arise when much of the pool is cut.

Assays:
Assay in all cases: uncleaved DNA left, log2 of reads against the no-enzyme library (log2 ratio); higher = less cleavage (more negative = more Rep cleavage of the k-mer); sequences stand for … in CTCGTCCG…ACCGGAGA
[1] = system: T1, Rep nickase domain of Muscovy duck circovirus
T1 sequence (residues 1-111 of Rep, tag left off): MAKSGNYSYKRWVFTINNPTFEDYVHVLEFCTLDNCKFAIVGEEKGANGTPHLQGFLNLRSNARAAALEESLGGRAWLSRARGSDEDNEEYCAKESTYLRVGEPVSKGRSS
Experimental: (§1)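 A pool of 90-nt single-stranded DNAs with seven random bases just before the constant AC of the nick site (name = the seven bases) was cut by 3 µM recombinant His6-SUMO-tagged Rep nickase domain (300 nM DNA, 50 mM HEPES pH 8.0, 50 mM NaCl, 1 mM MnCl2, 1 h, 37 °C, three replicates). Uncut DNA was amplified and sequenced.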

[2] = system: T2, Rep nickase domain of banana bunchy top virus
T2 sequence (residues 1-94 of Rep, tag left off): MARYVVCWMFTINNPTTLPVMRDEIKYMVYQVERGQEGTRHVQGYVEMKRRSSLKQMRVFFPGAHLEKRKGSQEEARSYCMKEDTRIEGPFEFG
Experimental: as §1

[3] = system: T3, Rep nickase domain of cabbage leaf curl virus
T3 sequence (residues 1-116 of Rep, tag left off): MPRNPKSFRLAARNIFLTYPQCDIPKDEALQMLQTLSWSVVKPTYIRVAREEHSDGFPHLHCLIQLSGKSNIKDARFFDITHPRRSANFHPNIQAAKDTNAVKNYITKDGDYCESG
Experimental: as §1

[4] = system: T4, Rep nickase domain of chickpea chlorotic dwarf virus
T4 sequence (residues 1-124 of Rep, tag left off): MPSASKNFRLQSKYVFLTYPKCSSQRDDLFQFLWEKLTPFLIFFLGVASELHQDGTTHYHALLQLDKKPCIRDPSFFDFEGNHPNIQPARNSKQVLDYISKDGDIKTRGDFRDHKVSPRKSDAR
Experimental: as §1

[5] = system: T5, Rep nickase domain of faba bean necrotic yellows virus
T5 sequence (residues 1-98 of Rep, tag left off): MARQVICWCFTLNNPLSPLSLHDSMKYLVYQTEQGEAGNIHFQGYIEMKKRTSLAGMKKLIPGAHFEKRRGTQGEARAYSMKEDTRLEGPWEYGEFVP
Experimental: as §1

[6] = system: T6, Rep nickase domain of maize striate mosaic virus
T6 sequence (residues 1-117 of Rep, tag left off): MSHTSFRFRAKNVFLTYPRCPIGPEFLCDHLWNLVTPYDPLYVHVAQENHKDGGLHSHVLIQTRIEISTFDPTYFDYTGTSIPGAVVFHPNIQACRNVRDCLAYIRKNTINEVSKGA
Experimental: as §1

[7] = system: T7, Rep nickase domain of porcine circovirus 2
T7 sequence (residues 2-116 of Rep, tag left off): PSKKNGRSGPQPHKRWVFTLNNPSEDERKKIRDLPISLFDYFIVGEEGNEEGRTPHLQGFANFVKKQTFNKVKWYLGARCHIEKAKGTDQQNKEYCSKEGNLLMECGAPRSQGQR
Experimental: as §1

[8] = system: T8, Rep nickase domain of tomato golden mosaic virus
T8 sequence (residues 1-124 of Rep, tag left off): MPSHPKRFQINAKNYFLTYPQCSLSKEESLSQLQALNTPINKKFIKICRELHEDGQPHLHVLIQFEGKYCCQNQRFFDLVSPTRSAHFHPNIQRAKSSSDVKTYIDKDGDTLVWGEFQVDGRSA
Experimental: as §1

[9] = system: T9, Rep nickase domain of tomato yellow leaf curl virus
T9 sequence (residues 1-136 of Rep, tag left off): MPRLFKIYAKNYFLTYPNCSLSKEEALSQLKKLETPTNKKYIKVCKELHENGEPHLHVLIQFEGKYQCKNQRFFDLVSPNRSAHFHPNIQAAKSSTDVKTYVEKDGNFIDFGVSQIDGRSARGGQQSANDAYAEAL
Experimental: as §1

[10] = system: T10, Rep nickase domain of wheat dwarf virus
T10 sequence (residues 1-137 of Rep, tag left off): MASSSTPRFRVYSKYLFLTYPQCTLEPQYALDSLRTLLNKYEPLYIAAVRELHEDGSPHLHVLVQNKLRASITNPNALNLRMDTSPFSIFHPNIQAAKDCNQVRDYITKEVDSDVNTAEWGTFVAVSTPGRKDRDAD
Experimental: as §1

Row | Sequence | uncleaved DNA left (log2) [1] | uncleaved DNA left (log2) [2] | uncleaved DNA left (log2) [3] | uncleaved DNA left (log2) [4] | uncleaved DNA left (log2) [5] | uncleaved DNA left (log2) [6] | uncleaved DNA left (log2) [7] | uncleaved DNA left (log2) [8] | uncleaved DNA left (log2) [9] | uncleaved DNA left (log2) [10]
1 | TGAGGGA | 0.00873 | -0.0222 | 0.433 | 0.978 | 0.0811 | 0.952 | 0.11 | 0.113 | 0.0308 | 0.0803
2 | TATCTCG | 0.0079 | 0.0266 | -0.68 | -0.568 | 0.237 | -1.04 | 0.251 | -0.0346 | -0.00329 | 0.0765
3 | GTTGTGC | 0.144 | -0.00479 | -0.0717 | 0.0161 | -0.0558 | -0.602 | 0.0594 | 0.0421 | -0.0154 | 0.00539
4 | TCGATAT | 0.116 | -0.0366 | 0.155 | -0.153 | 0.0991 | 0.0425 | -0.19 | -0.0136 | 0.118 | 0.0338
5 | GCCGTTA | -0.0934 | 0.057 | 0.142 | -0.238 | -0.0972 | -0.1 | -0.116 | -0.101 | -0.156 | -0.0859
6 | GGGAACT | 0.0154 | 0.0398 | 0.797 | 1.98 | -0.0496 | 2.23 | 0.181 | -0.0704 | 0.0243 | 0.193
7 | TATCCAT | 0.111 | 0.155 | 0.111 | -1.08 | 0.0617 | 0.245 | -0.133 | 0.026 | 0.193 | 0.155
8 | TAAGCCA | -0.117 | -0.0106 | -1.05 | -2.58 | -0.148 | -0.674 | -0.209 | -0.0996 | -0.104 | -0.556
9 | ATGGTCG | -0.0477 | -0.068 | -0.91 | 0.0423 | -0.0991 | -1.02 | 0.0445 | -0.237 | -0.00773 | -0.133
10 | AATGTTT | 0.0956 | -0.246 | -0.641 | -2.17 | 0.0355 | 0.185 | -2.05 | -0.00462 | -0.0529 | -0.208
11 | TTCCTTC | -0.0646 | -0.00456 | 0.284 | -0.205 | -0.0612 | -0.586 | -0.0843 | -0.203 | -0.0315 | 0.0901
12 | AATCTCT | 0.188 | 0.0662 | -0.193 | -2.17 | 0.044 | 0.802 | -0.478 | 0.0259 | 0.0718 | 0.152
13 | ATTTTCA | -0.237 | -0.0914 | -0.169 | -1.68 | -0.103 | -0.664 | -0.499 | -0.0624 | -0.0863 | 0.00632
14 | ATGTTAA | 0.143 | 0.0535 | -0.054 | -0.299 | 0.0812 | -0.421 | -0.0359 | 0.186 | 0.0743 | 0.0528
15 | ACAATTC | 0.0879 | 0.0757 | -0.365 | -0.507 | -0.0668 | -1.13 | 0.108 | 0.00859 | -0.0127 | -0.109
16 | ATATACC | -0.0636 | -0.0342 | -0.161 | -1.08 | -0.0592 | -0.6 | -0.705 | -0.032 | -0.126 | 0.0486
17 | GCCATAA | 0.136 | 0.19 | -0.0464 | 0.35 | -0.00967 | -0.14 | 0.0589 | 0.0585 | 0.183 | 0.129
18 | ATTCGGA | 0.0422 | -0.126 | 0.117 | 0.275 | 0.0557 | -0.112 | 0.103 | 0.0201 | -0.105 | 0.0197
19 | TTGGCTG | -0.0242 | -0.136 | -0.00476 | 0.843 | -0.0949 | 1.16 | -0.0323 | -0.065 | -0.203 | -0.13
20 | CCATTAA | -0.144 | -0.178 | -0.492 | -0.479 | -0.146 | -1.25 | -0.0298 | -0.114 | -0.215 | -0.221
21 | TGGTCCG | 0.07 | 0.0583 | -0.816 | -0.0889 | 0.0516 | -0.732 | 0.0801 | -0.0372 | 0.111 | -0.109
22 | CATCCGA | -0.168 | -0.0991 | -0.23 | -0.166 | -0.101 | -0.948 | 0.063 | -0.0654 | -0.0126 | -0.0957
23 | GCAATTC | -0.102 | -0.0578 | -0.0862 | 0.267 | -0.0739 | -0.423 | 0.0726 | 0.035 | -0.038 | -0.0885
24 | CTCCAAT | -0.0176 | 0.0133 | 0.22 | -0.477 | 0.107 | -0.412 | -0.149 | -0.0764 | -0.0524 | 0.0711
25 | TACATCT | -0.131 | -0.162 | -2.04 | -2.82 | -0.00682 | -1.02 | -2.21 | -0.154 | -0.00461 | -0.286
26 | AGAAGAC | 0.0804 | 0.179 | 0.119 | 0.643 | 0.113 | 0.675 | 0.216 | 0.116 | 0.0263 | 0.0145
27 | TATGATA | 0.000288 | 0.00615 | -0.0267 | -2.24 | 0.207 | -0.154 | -0.0267 | 0.0613 | 0.032 | 0.0399
28 | GTTCCTG | -0.00604 | 0.0606 | 0.173 | 0.46 | -0.0521 | 0.888 | -0.141 | 0.00935 | 0.0471 | 0.0299
29 | CGTCTTC | 0.127 | 0.0361 | 0.203 | 0.0828 | 0.0577 | -0.169 | 0.0594 | 0.107 | 0.0172 | 0.195
30 | GCTGGGC | 0.0253 | 0.0892 | 0.246 | 0.826 | -0.0285 | 0.616 | 0.19 | 0.0555 | 0.104 | 0.0105
